The list shows a part of the results.

This test deals with T1, MBP-FoxP1dN (Mus musculus, UniProt P58462 326-579).
T1 sequence: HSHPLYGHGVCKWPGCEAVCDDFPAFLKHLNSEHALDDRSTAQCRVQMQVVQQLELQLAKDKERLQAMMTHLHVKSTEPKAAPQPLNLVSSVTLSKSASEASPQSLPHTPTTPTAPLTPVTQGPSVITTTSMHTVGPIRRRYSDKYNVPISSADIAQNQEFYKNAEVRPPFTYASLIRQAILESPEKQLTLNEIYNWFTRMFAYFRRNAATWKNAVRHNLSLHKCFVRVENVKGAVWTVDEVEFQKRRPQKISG
Nature of the test: PD-seq (MBP pull-down with sequencing); 20 mM Tris-HCl pH 7.5, 100 mM NaCl, 1.5 mM MgCl2, 0.4 uM protein, 0.1 uM dsDNA library, 30 min, room temperature, amylose pull-down; high values mean tight binding. Particulars: protein: recombinant; tags: His6-MBP; chain copies: 2; dsDNA, one strand shown. The method in brief: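 A fragment of mouse FoxP3 or FoxP1 without its N-terminus, carrying a His6-MBP tag and produced in E. coli, was combined at 0.4 µM with a 0.1 µM degenerate double-stranded DNA library filled in with Klenow. The mixture sat for 30 min at room temperature in Tris pH 7.5 buffer containing NaCl and MgCl2. Protein–DNA complexes were captured on amylose resin, washed three times, and the DNA was freed with proteinase K, barcoded by PCR and sequenced on Illumina. Binding is expressed as reads-per-million enrichment of pull-down over input, with replicates pooled.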
Consider “GATGATTGTTCTCCCAGCTGATGAATTGCGTCTGTCGAGTAAACAAATTTTCCTAATCTTTCTGTTCAAGCGCCATCTAC”, for which the binding signal is 1.03 RPM ratio (pull-down/input).
The result for “GATGATTGTTCTCCCAGCTGATGAATTAGCATTGTCGAGTAAACAAATTTTCCTAATCTTTCTGTTCAAGCGCCATCTAC” reads 1.29 RPM ratio (pull-down/input); that for “GATGATTGTTCTCCCAGCTGATGAATTCCAGACCTCGAGTAAACAAATTTTCCTAATCTTTCTGTTCAAGCGCCATCTAC”, 0.724 RPM ratio (pull-down/input); that for “GATGATTGTTCTCCCAGCTGATGAATTTGTCGAGTCGAGTAAACAAATTTTCCTAATCTTTCTGTTCAAGCGCCATCTAC”, 0.987 RPM ratio (pull-down/input).
With “GATGATTGTTCTCCCAGCTGATGAATTGATTGGTTCGAGTAAACAAATTTTCCTAATCTTTCTGTTCAAGCGCCATCTAC” the figure was 1.1 RPM ratio (pull-down/input).
With “GATGATTGTTCTCCCAGCTGATGAATTCGTGTAATCGAGTAAACAAATTTTCCTAATCTTTCTGTTCAAGCGCCATCTAC” the figure was 1.43 RPM ratio (pull-down/input).
As for “GATGATTGTTCTCCCAGCTGATGAATTTAGGAATTCGAGTAAACAAATTTTCCTAATCTTTCTGTTCAAGCGCCATCTAC”, the binding signal was 0.973 RPM ratio (pull-down/input).
“GATGATTGTTCTCCCAGCTGATGAATTGTCTCACTCGAGTAAACAAATTTTCCTAATCTTTCTGTTCAAGCGCCATCTAC”: the binding signal was 0.978 RPM ratio (pull-down/input).
The result for “GATGATTGTTCTCCCAGCTGATGAATTGGGTTTATCGAGTAAACAAATTTTCCTAATCTTTCTGTTCAAGCGCCATCTAC” reads 1.14 RPM ratio (pull-down/input); that for “GATGATTGTTCTCCCAGCTGATGAATTCCCTTCTTCGAGTAAACAAATTTTCCTAATCTTTCTGTTCAAGCGCCATCTAC”, 0.876 RPM ratio (pull-down/input).
With “GATGATTGTTCTCCCAGCTGATGAATTGTTCGAGTCGAGTAAACAAATTTTCCTAATCTTTCTGTTCAAGCGCCATCTAC” the figure was 1.05 RPM ratio (pull-down/input).
With “GATGATTGTTCTCCCAGCTGATGAATTGGTTCGATCGAGTAAACAAATTTTCCTAATCTTTCTGTTCAAGCGCCATCTAC” the figure was 0.883 RPM ratio (pull-down/input).
With “GATGATTGTTCTCCCAGCTGATGAATTGGCTGTTTCGAGTAAACAAATTTTCCTAATCTTTCTGTTCAAGCGCCATCTAC”, the binding signal was 0.946 RPM ratio (pull-down/input).
As for “GATGATTGTTCTCCCAGCTGATGAATTAGAGACATCGAGTAAACAAATTTTCCTAATCTTTCTGTTCAAGCGCCATCTAC”, the binding signal was 1.04 RPM ratio (pull-down/input).
With “GATGATTGTTCTCCCAGCTGATGAATTCCAAACTTCGAGTAAACAAATTTTCCTAATCTTTCTGTTCAAGCGCCATCTAC” the figure was 0.809 RPM ratio (pull-down/input).
The result for “GATGATTGTTCTCCCAGCTGATGAATTTGCGAGCTCGAGTAAACAAATTTTCCTAATCTTTCTGTTCAAGCGCCATCTAC” reads 0.907 RPM ratio (pull-down/input).
For the sequence “GATGATTGTTCTCCCAGCTGATGAATTCAAAGAGTCGAGTAAACAAATTTTCCTAATCTTTCTGTTCAAGCGCCATCTAC”, the binding signal was 0.821 RPM ratio (pull-down/input).
Regarding “GATGATTGTTCTCCCAGCTGATGAATTGCACGAGTCGAGTAAACAAATTTTCCTAATCTTTCTGTTCAAGCGCCATCTAC”, the binding signal is 0.968 RPM ratio (pull-down/input).
For the sequence “GATGATTGTTCTCCCAGCTGATGAATTTTCCCCCTCGAGTAAACAAATTTTCCTAATCTTTCTGTTCAAGCGCCATCTAC”, the binding signal is 0.785 RPM ratio (pull-down/input).
With “GATGATTGTTCTCCCAGCTGATGAATTTCACGCATCGAGTAAACAAATTTTCCTAATCTTTCTGTTCAAGCGCCATCTAC” the figure was 1.01 RPM ratio (pull-down/input); with “GATGATTGTTCTCCCAGCTGATGAATTCCTAAGTTCGAGTAAACAAATTTTCCTAATCTTTCTGTTCAAGCGCCATCTAC”, 0.833 RPM ratio (pull-down/input); with “GATGATTGTTCTCCCAGCTGATGAATTCAGAAGGTCGAGTAAACAAATTTTCCTAATCTTTCTGTTCAAGCGCCATCTAC”, 0.727 RPM ratio (pull-down/input).
The result for “GATGATTGTTCTCCCAGCTGATGAATTGTACTGTTCGAGTAAACAAATTTTCCTAATCTTTCTGTTCAAGCGCCATCTAC” reads 1.09 RPM ratio (pull-down/input); that for “GATGATTGTTCTCCCAGCTGATGAATTTTGGATCTCGAGTAAACAAATTTTCCTAATCTTTCTGTTCAAGCGCCATCTAC”, 0.787 RPM ratio (pull-down/input).
As for “GATGATTGTTCTCCCAGCTGATGAATTTTAGAGATCGAGTAAACAAATTTTCCTAATCTTTCTGTTCAAGCGCCATCTAC”, the binding signal was 0.867 RPM ratio (pull-down/input).
With “GATGATTGTTCTCCCAGCTGATGAATTCTCGAACTCGAGTAAACAAATTTTCCTAATCTTTCTGTTCAAGCGCCATCTAC”, the binding signal was 0.76 RPM ratio (pull-down/input).
With “GATGATTGTTCTCCCAGCTGATGAATTCCTGCGATCGAGTAAACAAATTTTCCTAATCTTTCTGTTCAAGCGCCATCTAC” the figure was 0.876 RPM ratio (pull-down/input); with “GATGATTGTTCTCCCAGCTGATGAATTTATGCTCTCGAGTAAACAAATTTTCCTAATCTTTCTGTTCAAGCGCCATCTAC”, 1.11 RPM ratio (pull-down/input); with “GATGATTGTTCTCCCAGCTGATGAATTTAAACTATCGAGTAAACAAATTTTCCTAATCTTTCTGTTCAAGCGCCATCTAC”, 0.987 RPM ratio (pull-down/input).
The result for “GATGATTGTTCTCCCAGCTGATGAATTTGACTAGTCGAGTAAACAAATTTTCCTAATCTTTCTGTTCAAGCGCCATCTAC” reads 0.816 RPM ratio (pull-down/input); that for “GATGATTGTTCTCCCAGCTGATGAATTATTATATTCGAGTAAACAAATTTTCCTAATCTTTCTGTTCAAGCGCCATCTAC”, 1.33 RPM ratio (pull-down/input); that for “GATGATTGTTCTCCCAGCTGATGAATTAGTATATTCGAGTAAACAAATTTTCCTAATCTTTCTGTTCAAGCGCCATCTAC”, 1.21 RPM ratio (pull-down/input).

Source of the values: publication PMC12820563, “FoxP3 forms a head-to-head dimer in vivo and stabilizes its multimerization on adjacent microsatellites”.
